Test results from patent publication US12209142B2, “SARS-CoV-2 epitope-targeted peptide immunostimulants” (Institute for Systems Biology, priority 2020, dated 2025).
Where a SMILES comes first, the peptide text is derived from it. Bridges are numbered along the chain shown (N, C = ends). Triazole bridges read from a SMILES are 1,4-linked. Where no end group is shown, it is not given here. [ ]: non-standard residue; d: D form. The star is where a group is joined. Biotin = O=C1N[C@H]2[C@H](CS[C@H]2CCCCC(=O)*)N1; Lys(N3) = [N-]=[N+]=NCCCC[C@H](N)C(=O)O; PEG5 = NCCOCCOCCOCCOCCOCCC(=O)O; Pra = C#CC[C@H](N)C(=O)O

System: MrkA-expressing K. pneumoniae cells
Assay: Whole-cell ELISA of biotinylated PCC binding
Details: strain BAA 1705, 50 μM PCC

Compound | whole-cell ELISA signal at high PCC concentration, LB or G-CAA
CC(C)C[C@@H]1NC(=O)[C@@H](NC(=O)CCOCCOCCOCCOCCOCCNC(=O)CCCC[C@@H]2SC[C@@H]3NC(=O)N[C@@H]32)Cc2cn(nn2)CCCC[C@@H](C(N)=O)NC(=O)[C@H](Cc2ccccc2)NC(=O)[C@H](Cc2ccccc2)NC(=O)[C@H](Cc2ccccc2)NC(=O)[C@H](CC(C)C)NC1=O [cy(LLFFF)] ({Biotin-PEG5}-[Pra]LLFFF[Lys(N3)]-NH2; triazole 1-7; N-terminus and C-terminus assumed) | bound K. pneumoniae cells regardless of MrkA-expression level
cy(LLFFA): control compound differing from cy(LLFFF) by a single phenyl moiety ([Lys(N3)]LLFFA[Pra]; triazole 1-7) | bound K. pneumoniae cells regardless of MrkA-expression level
